According to US20220411514A1, “ANTI-GAL3 ANTIBODIES AND METHODS OF USE FOR INSULIN RESISTANCE” (TrueBinding, Inc., priority 2021, published 2022):

Experiments:
hGal3 peptide = molecular target: T1, hGal3 peptide (Homo sapiens, UniProt P17931); assay: Gal3 peptide library binding ELISA (Example 2)
T1 construct: a library of 24 amino acid peptides representing portions of Gal3
Method: To identify the epitopes to which Gal3 antibodies with and without Gal3-INSR blocking activity bound, a library of 24 amino acid peptides representing portions of Gal3, depicted in FIG. 18, was produced and the ability of each peptide to bind Gal3 antibodies was evaluated by ELISA. At least 2 μg/ml of hGal3 peptide in 50 μl of PBS or 0.1 μg/ml of full-length human Gal3 protein (GenScript) and human Galectin-3 protein (Acro Biosystems, GA3-H5129) were diluted in PBS (Corning, 21-030-CM) to concentrations of at least 2 μg/ml or 0.1 μg/ml, respectively, and added to the wells of a 96-well ELISA plate (Thermo Fisher, 44-2404-21). After incubating the plate at 4° C. overnight, the plate was washed three times with PBST (PBS with 0.05% Tween 20 [VWR, 0777]). The plate was then blocked for an hour with 2% BSA (EMD Millipore, 126609) in PBST at room temperature with gentle rocking. Thereafter, the 2% BSA in PBST was discarded and human Galectin-3 hybridoma supernatants or antibodies were diluted in 2% BSA in PBST to concentrations of at least 0.1 μg/ml and added to the wells. The plate was incubated for an hour at room temperature with gentle rocking and then washed three times with PBST. Afterwards, Goat Anti-Mouse IgG-HRP (Jackson ImmunoResearch, 115-036-1461) or Goat Anti-Rat IgG HRP (Abcam, ab205720) diluted in 2% BSA in PBST (1:4000) were added to the wells. The plate was incubated for 30 minutes to 1 hour at room temperature with gentle rocking and then washed three times with PBST. TMB substrate (Thermo Scientific, 34029) was then added to each well. The reaction was stopped with 1M HCl (JT Baker, 5620-02) and read using a plate reader (Molecular Devices) at absorbance of 450 nm.

Human Gal3 peptides = molecular target: T2, Human Gal3 peptides (Homo sapiens, UniProt P17931); assay: Gal3 peptide binding ELISA (Example 8); conditions: antibody 5 μg/mL
T2 construct: purchased LifeTein custom order
Method: Gal3 peptide binding activity of additional exemplary anti-Gal3 antibodies was assessed with the same peptides as described in FIG. 18 (SEQ ID NOs: 3-26). Human Gal3 peptides (LifeTein, custom order) and human Gal3 proteins (R&D Systems, 8259-GA; TrueBinding, QCB200349) were diluted in PBS (Corning, 21-030-CM) to concentrations of at least 100 μg/mL (peptides) or 1 μg/mL (proteins), and added to the wells of several 96-well ELISA plates (Thermo Fisher, 44-2404-21). After incubating the plates at 4° C. overnight, the plates were washed three times with PBST (PBS with 0.05% Tween 20 [VWR, 0777]). The plates were then blocked for an hour with 2% BSA (EMD Millipore, 126609) in PBST at room temperature with gentle rocking. Thereafter, the 2% BSA in PBST was discarded and Gal3-binding antibodies (reformatted hIgG4 [S228P]) were diluted in 2% BSA in PBST to concentrations of 5 μg/mL and added to the wells. The plates were incubated for an hour at room temperature with gentle rocking and then washed three times with PBST. Afterwards, Peroxidase AffiniPure F(ab′)2 Fragment Goat Anti-Human IgG (H+L) polyclonal antibody (Jackson ImmunoResearch, 109-036-003), was diluted in 2% BSA in PBST (1:4000) and added to the wells. The plates were incubated for 1 hour at room temperature with gentle rocking and then washed three times with PBST. TMB substrate (Thermo Scientific, 34029) was then added to each well. The reaction was stopped with 1M HCl (JT Baker, 5620-02) and read using a plate reader (Molecular Devices) at absorbance of 450 nm.

B1: 14H10.2C9: anti-Gal3 antibody (antibody)
heavy: QIQLVQSGPELKKPGETVKISCKASGYTFTTYGMGWVKQAPGKDLKWMGWINTYSGVPTYADDFKGRFAFSLETSASTAYLQISNLKNEDTATYFCSTPYEYDGAYWGQGTLVTVSAAKTTPPSVYPLAPVCGDTTGSSVTLGCLVKGYFPEPVTLTWNSGSLSSGVHTFPAVLQSDLYTLSSSVTVTSSTWPSQSITCNVAHPASSTKVDKKIEPRGPTIKPCPPCKCPAPNAAGGPSVFIFPPKIKDVLMISLSPIVTCVVVDVSEDDPDVQISWFVNNVEVHTAQTQTHREDYNSTLRVVSALPIQHQDWMSGKEFKCKVNNKDLGAPIERTISKPKGSVRAPQVYVLPPPEEEMTKKQVTLTCMVTDFMPEDIYVEWTNNGKTELNYKNTEPVLDSDGSYFMYSKLRVEKKNWVERNSYSCSVVHEGLHNHHTTKSFSRTPGK
light: DVVMTQTPLTLSVTIGQPASISCKSSQSLFDSDGKTYLNWLLQRPGQSPKRLIYLVSKLDSGVPDRFTGSGSGTDFTLKISRVEAEDLGVYYCWQGTHFPLTFGAGTKLEMKRADVAPTVSIFPPSSEQLTSGGASVVCFLNNFYPKDINVKWKIDGSERQNGVLNSWTDQDSKDSTYSMSSTLTLTKDEYERHNSYTCEATHKTSTSPIVKSFNRNEC
modifications: 14H10.2C9 heavy chain peptide sequence; 14H10.2C9 light chain peptide sequence
notes: anti-Gal3 antibody
bound: binding to Gal3 peptide 6 (amino acids 51-70, SEQ ID NO: 8) (hGal3 peptide) | binding to Gal3 peptide 7 (amino acids 61-80, SEQ ID NO: 9) (hGal3 peptide) | binding to Gal3 peptide 6 (SEQ ID NO: 8) (Human Gal3 peptides) | binding to Gal3 peptide 7 (SEQ ID NO: 9) (Human Gal3 peptides)

B2: 13A12.2E5: anti-Gal3 antibody (antibody)
heavy: QIQLVQSGPELKKPGETVKISCKTSGYKFKTYVMSWVKQAPGKALKWMGWINTYSGVPTYADDFKGRFAFSLETSASTAYLEIINLKNEDTATYFCARDGNYGDPMDYWGQGTSVTVSSAKTTPPSVYPLAPVCGDTTGSSVTLGCLVKGYFPEPVTLTWNSGSLSSGVHTFPAVLQSDLYTLSSSVTVTSSTWPSQSITCNVAHPASSTKVDKKIEPRGPTIKPCPPCKCPAPNAAGGPSVFIFPPKIKDVLMISLSPIVTCVVVDVSEDDPDVQISWFVNNVEVHTAQTQTHREDYNSTLRVVSALPIQHQDWMSGKEFKCKVNNKDLGAPIERTISKPKGSVRAPQVYVLPPPEEEMTKKQVTLTCMVTDFMPEDIYVEWTNNGKTELNYKNTEPVLDSDGSYFMYSKLRVEKKNWVERNSYSCSVVHEGLHNHHTTKSFSRTPGK
light: DVVMTQTPLTLSVAIGQPASISCKSSQSLLYTNGKTYLNWLLQRPGQSPKRLIYLLSKLDSGVPDRFSASGSGTDFTLKISRVEAEDLGVYYCLQSTHFPLTFGAGTKLEMKRADVAPTVSIFPPSSEQLTSGGASVVCFLNNFYPKDINVKWKIDGSERQNGVLNSWTDQDSKDSTYSMSSTLTLTKDEYERHNSYTCEATHKTSTSPIVKSFNRNEC
modifications: 13A12.2E5 heavy chain peptide sequence; 13A12.2E5 light chain peptide sequence
notes: anti-Gal3 antibody
bound: binding to Gal3 peptide 6 (amino acids 51-70, SEQ ID NO: 8) (hGal3 peptide) | binding to Gal3 peptide 4 (SEQ ID NO: 6) (Human Gal3 peptides) | binding to Gal3 peptide 6 (SEQ ID NO: 8) (Human Gal3 peptides)

B3: 3B11.2G2: anti-Gal3 antibody (antibody)
heavy: QIQLVQSGPELKKPGETVKISCKTSGYKFKTYVMSWVKQAPGKALKWMGWINTYSGVPTYADDFKGRFAFSLETSASTAYLEIINLKNEDTATYFCARDGNYGDPMDYWGQGTSVTVSSAKTTPPSVYPLAPVCGDTTGSSVTLGCLVKGYFPEPVTLTWNSGSLSSGVHTFPAVLQSDLYTLSSSVTVTSSTWPSQSITCNVAHPASSTKVDKKIEPRGPTIKPCPPCKCPAPNAAGGPSVFIFPPKIKDVLMISLSPIVTCVVVDVSEDDPDVQISWFVNNVEVHTAQTQTHREDYNSTLRVVSALPIQHQDWMSGKEFKCKVNNKDLGAPIERTISKPKGSVRAPQVYVLPPPEEEMTKKQVTLTCMVTDFMPEDIYVEWTNNGKTELNYKNTEPVLDSDGSYFMYSKLRVEKKNWVERNSYSCSVVHEGLHNHHTTKSFSRTPGK
light: DVVMTQTPLTLSVAIGQPASISCKSSQSLLYTNGKTYLNWLLQRPGQSPKRLIYLVSKLDSGVPDRFSGSGSGTDFTLKISRVEAEDLGVYYCLQSTHFPLTFGAGTKLELKRADVAPTVSIFPPSSEQLTSGGASVVCFLNNFYPKDINVKWKIDGSERQNGVLNSWTDQDSKDSTYSMSSTLTLTKDEYERHNSYTCEATHKTSTSPIVKSFNRNEC
modifications: 3B11.2G2 heavy chain peptide sequence; 3B11.2G2 light chain peptide sequence
notes: anti-Gal3 antibody
bound: binding to Gal3 peptide 4 (amino acids 31-50, SEQ ID NO: 6) (hGal3 peptide) | binding to Gal3 peptide 6 (amino acids 51-70, SEQ ID NO: 8) (hGal3 peptide) | binding to Gal3 peptide 4 (SEQ ID NO: 6) (Human Gal3 peptides) | binding to Gal3 peptide 6 (SEQ ID NO: 8) (Human Gal3 peptides)

B4: 847.27B9: anti-Gal3 antibody (antibody, V domains shown)
VH: QIQLVQSGPELKKPGETVKISCKASGYTFTNYGMNWVKQAPGKGLKWMGWINTNTGEPTYAEEFKGRFAFSLETSASTAYLQINYLKNEDTATFFCARLDYDYDEDYWGQGTTLTVSS
VL: DVVMTQTPLTLSVTLGQPASISCRSSQSLLDSDGKTYLNWLLQRPGQSPKRLIYLVSRLDSGVPDRFTGSGSGTDFTLKISRVEAEDLGVYYCWQGTHFPFTFGGGTKLEIK
bound: binding to Gal3 peptide 4 (SEQ ID NO: 6) (Human Gal3 peptides)

B5: 847.12C4: anti-Gal3 antibody (antibody, V domains shown)
VH: QVQLKESGPDLVQPSQTLSLTCTVSGFSLTIYGVHWVRQPPGKGLEWVGTVAWDDKKYYNSPLQSRLSISRDTSKNQVFLKLSSLQTEDTAMYYCTMTGGPINYWGPGTSVTVSS
VL: DVVMTQTPLTLSVTIEQTASISCKSSQSLLDRDGKTYLNWLLQRPGQSPKRLIYLVSKLDSGVPDRFTGSGSGTDFTLKISRVEAEDLGVYYCWQGTHFPTFGGGTKLEIK
bound: binding to Gal3 peptide 2 (SEQ ID NO: 4) (Human Gal3 peptides) | binding to Gal3 peptide 3 (SEQ ID NO: 5) (Human Gal3 peptides) | binding to Gal3 peptide 9 (SEQ ID NO: 11) (Human Gal3 peptides) | binding to Gal3 peptide 10 (SEQ ID NO: 12) (Human Gal3 peptides)

B6: F846TC.16B5: anti-Gal3 antibody (antibody)
heavy: QIQLVQSGPELKKPGETVKISCKASGYTFTNYGMNWVKQAPGKGLKWMGWINTYTGEPAYADDFKGRFAFSLETSASTAYLQINNLKNEDMATYFCARWGGYDGDYYAMDYWGQGTSVTVSSASTKGPSVFPLAPCSRSTSESTAALGCLVKDYFPEPVTVSWNSGALTSGVHTFPAVLQSSGLYSLSSVVTVPSSSLGTKTYTCNVDHKPSNTKVDKRV[in this place human IgG4 Fc with S228P (EU numbers)]
light: NIMMTQSPSSLAVSAGEKVTMSCKSSQSVLYSSNQKNYLAWYQQKPGQSPKLLIYWASTRESGVPDRFTGSGSGTDFTLTISSVQAEDLAVYYCHQYLSSLTFGAGTKLELKRTVAAPSVFIFPPSDEQLKSGTASVVCLLNNFYPREAKVQWKVDNALQSGNSQESVTEQDSKDSTYSLSSTLTLSKADYEKHKVYACEVTHQGLSSPVTKSFNRGEC
modifications: F846TC.16B5 heavy chain peptide sequence; F846TC.16B5 light chain peptide sequence
notes: anti-Gal3 antibody
bound: binding to Gal3 peptide 6 (SEQ ID NO: 8) (Human Gal3 peptides) | binding to Gal3 peptide 17 (SEQ ID NO: 19) (Human Gal3 peptides)
